From paper PMC4336329 (PLoS ONE, 2015) come the findings set out here.

Screen size: about 310,000 compounds; about 2,200 (0.71%) showed an effect of 50% or more. The effect is printed as a negative number. This is one part of the list.

human ether-à-go-go-related gene (hERG) potassium channel, sequence (Q12809 whole entry, looked up): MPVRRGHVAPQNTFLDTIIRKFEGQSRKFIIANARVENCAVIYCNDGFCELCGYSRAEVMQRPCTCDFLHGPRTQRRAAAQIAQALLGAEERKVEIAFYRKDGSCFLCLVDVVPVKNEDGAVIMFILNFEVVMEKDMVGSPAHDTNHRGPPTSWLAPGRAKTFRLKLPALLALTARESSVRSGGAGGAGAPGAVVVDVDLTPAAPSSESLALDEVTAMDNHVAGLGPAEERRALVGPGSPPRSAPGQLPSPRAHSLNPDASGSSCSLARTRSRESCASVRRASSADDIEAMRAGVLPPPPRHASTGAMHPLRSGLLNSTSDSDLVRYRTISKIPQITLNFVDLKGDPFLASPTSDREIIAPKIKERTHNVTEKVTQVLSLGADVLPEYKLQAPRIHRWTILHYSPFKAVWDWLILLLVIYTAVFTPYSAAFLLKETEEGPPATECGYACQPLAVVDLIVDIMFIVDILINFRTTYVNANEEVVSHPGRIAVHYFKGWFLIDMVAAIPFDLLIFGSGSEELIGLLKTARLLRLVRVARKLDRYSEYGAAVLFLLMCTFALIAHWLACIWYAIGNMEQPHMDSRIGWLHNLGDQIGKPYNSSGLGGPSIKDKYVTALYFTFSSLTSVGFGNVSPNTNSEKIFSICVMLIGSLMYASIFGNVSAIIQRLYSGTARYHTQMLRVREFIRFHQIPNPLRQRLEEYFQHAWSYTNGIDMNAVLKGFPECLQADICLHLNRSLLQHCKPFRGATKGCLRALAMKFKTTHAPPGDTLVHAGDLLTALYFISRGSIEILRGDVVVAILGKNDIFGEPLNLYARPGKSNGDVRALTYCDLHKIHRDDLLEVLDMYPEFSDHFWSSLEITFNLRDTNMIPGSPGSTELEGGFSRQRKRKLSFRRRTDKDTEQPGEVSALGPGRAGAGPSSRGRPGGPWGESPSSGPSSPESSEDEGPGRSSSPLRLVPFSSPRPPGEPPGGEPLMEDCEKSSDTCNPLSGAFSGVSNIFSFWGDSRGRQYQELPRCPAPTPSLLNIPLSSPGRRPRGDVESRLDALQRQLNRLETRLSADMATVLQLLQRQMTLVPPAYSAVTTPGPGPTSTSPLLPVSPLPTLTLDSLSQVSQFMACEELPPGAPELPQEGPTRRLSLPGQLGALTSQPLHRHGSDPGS

This test has as its target human ether-à-go-go-related gene (hERG) potassium channel (human, UniProt Q12809). The test is described as follows: primary screen, population patch clamp on CHO cells stably expressing hERG.
Take `CCCCn1cnc2c([nH]c3ccccc32)c1=O`: the “hERG current change (%, negative = inhibition) at 1uM” value worked out at 16%.

As to `CCCN(CC1CCCO1)C(=O)CCc1nnc(CCc2ccc(OC)cc2)o1` (stereo not shown), the “hERG current change (%, negative = inhibition) at 1uM” value is reported as 13.9%.

In the case of `Cc1cccn2c(N)c(-c3ccccc3)nc12`, the “hERG current change (%, negative = inhibition) at 1uM” value is 3.9%.

For the molecule `O=C(NC1CCCCC1)NC1CC2CCCC(C1)N2C1CCCC1` (stereo not shown), the “hERG current change (%, negative = inhibition) at 1uM” value came to 7.05%.

For `O=C(N/N=C/c1cc(Br)cc(Br)c1O)c1cccc(S(=O)(=O)N2CCOCC2)c1`, the “hERG current change (%, negative = inhibition) at 1uM” value was found to be 29.1%.

With `COCCOC(=O)c1cc(C(=O)c2cc(Cl)ccc2O)coc1=N`, the “hERG current change (%, negative = inhibition) at 1uM” value is reported as 23%.

Take `O=C(NCCS(=O)(=O)N1CCN(c2ccccc2F)CC1)c1cc(=O)c2ccccc2o1`: the “hERG current change (%, negative = inhibition) at 1uM” value was found to be 7.17%.

For `Cc1ccc(S(=O)(=O)N2CCC(=O)N(C(CO)Cc3ccccc3)CC2)cc1` (stereo not shown), the “hERG current change (%, negative = inhibition) at 1uM” value is listed as 13.1%.

`Cc1ccc(OCC(=O)O/N=C(\N)Cc2ccc([N+](=O)[O-])cc2)cc1C`: the “hERG current change (%, negative = inhibition) at 1uM” value is 6.07%.

In the case of `CCCS(=O)(=O)N1CCCC(C(=O)N2CCN(C(=O)OCC)CC2)C1` (stereo not shown), the “hERG current change (%, negative = inhibition) at 1uM” value is 10.6%.

As to `CSCCC(NC(=O)c1ccccc1Cl)C(=O)N1CC(C)OC(C)C1` (stereo not shown), the “hERG current change (%, negative = inhibition) at 1uM” value was 12.3%.

For the molecule `CC(C)(C)C(=O)Cn1nnc(-c2ccc(C(F)(F)F)cc2)n1`, the “hERG current change (%, negative = inhibition) at 1uM” value is on record as 13.1%.

Consider `C=CCNC(=S)Nc1nc2c(cc1C(=O)OCC)COC(C)(C)C2`, for which the “hERG current change (%, negative = inhibition) at 1uM” value is 11.7%.

Regarding `COc1ccc(-c2[nH]n(-c3ccc([N+](=O)[O-])cc3)c(=O)c2C=NCc2ccncc2)cc1`, the “hERG current change (%, negative = inhibition) at 1uM” value turned out to be 4.62%.

With `COc1ccccc1C1=NOC(C(=O)N2CCN(C(=O)c3ccco3)CC2)C1` (stereo not shown), the “hERG current change (%, negative = inhibition) at 1uM” value was 8.33%.

For the molecule `O=c1c(-c2ccc(Cl)cc2)c[nH]n1-c1ccccc1`, the “hERG current change (%, negative = inhibition) at 1uM” value is 18.4%.

For `COc1ccc(OCC(O)CN2C(=O)c3ccccc3S2(=O)=O)cc1` (stereo not shown), the “hERG current change (%, negative = inhibition) at 1uM” value is on record as 1.37%.

Turning to `COc1cc(C)c(S(=O)(=O)N2CCOCC2)c(C)c1C`, the “hERG current change (%, negative = inhibition) at 1uM” value was 12.6%.

`Cn1nccc1NC(=O)Nc1ccc(OC(F)(F)F)cc1`: the “hERG current change (%, negative = inhibition) at 1uM” value was 9.37%.

As for `CN(C)CCNC(=S)Nc1ccc(F)c(F)c1F`, the “hERG current change (%, negative = inhibition) at 1uM” value is 8.01%.

As for `Cc1ccc(C2CC2C(=O)NNC(=S)Nc2cccc(C)c2)cc1` (stereo not shown), the “hERG current change (%, negative = inhibition) at 1uM” value is -0.868%.

`COc1ccccc1NC(=O)CSC1=NC(=O)C(Cc2ccccc2)C(=O)N1` (stereo not shown): the “hERG current change (%, negative = inhibition) at 1uM” value was 20.7%.

Turning to `CCC(C)n1c(SCC(=O)Nc2cc(C)on2)nc2ccccc2c1=O` (stereo not shown), the “hERG current change (%, negative = inhibition) at 1uM” value is listed as 17.5%.

For the molecule `CC1=C(C#N)C(c2ccccc2O)C(C#N)=C(C)N1`, the “hERG current change (%, negative = inhibition) at 1uM” value is given as 11.1%.

For `CCOc1ncccc1C(=O)OCC(=O)c1ccccc1Br`, the “hERG current change (%, negative = inhibition) at 1uM” value worked out at 14.9%.

For `CCCCN(C)CCCNC(=O)CS(=O)Cc1nc(-c2ccc(OC)c(OC)c2)oc1C` (stereo not shown), the “hERG current change (%, negative = inhibition) at 1uM” value came out at 8.97%.

For the molecule `COc1cc(/C=C(/NC(=O)c2ccccc2)C(=O)Nc2ccccc2)c([N+](=O)[O-])cc1OC`, the “hERG current change (%, negative = inhibition) at 1uM” value came out at 6.01%.

Regarding `COc1ccc(Br)cc1Cn1nnc(C(=O)Nc2ccc3c(c2)OCCO3)c1N`, the “hERG current change (%, negative = inhibition) at 1uM” value was 11.4%.

Turning to `O=c1c2ccccc2ncn1Cc1ccc(Cl)c(Cl)c1`, the “hERG current change (%, negative = inhibition) at 1uM” value was 12.6%.

With `CCN(CC)S(=O)(=O)c1ccc(C(=O)N(c2ccccc2)C2C=CS(=O)(=O)C2)cc1` (stereo not shown), the “hERG current change (%, negative = inhibition) at 1uM” value is on record as -4.18%.

For the molecule `CCOC(=O)c1[nH]c2ccc(OCC)cc2c1NC(=O)CN1CCCC(C)C1` (stereo not shown), the “hERG current change (%, negative = inhibition) at 1uM” value is -2.44%.

On to `CN(C)C(=S)Nc1ccc(N2CCOCC2)cc1`, for which the “hERG current change (%, negative = inhibition) at 1uM” value came to 16.9%.

`O=C(NCCC1CCCCN1S(=O)(=O)c1ccccc1)C(=O)NC1CC1` (stereo not shown): the “hERG current change (%, negative = inhibition) at 1uM” value was determined as 8.5%.

Consider `C[C@H](NC(=O)C1(c2ccccc2)CCN(C(=O)[C@H]2CSCN2C(=O)OC(C)(C)C)CC1)C(=O)O`, for which the “hERG current change (%, negative = inhibition) at 1uM” value is given as 16%.

Turning to `COc1cccc(N2C(=O)C3ON(c4ccccc4)C(c4cccs4)C3C2=O)c1` (stereo not shown), the “hERG current change (%, negative = inhibition) at 1uM” value turned out to be 9.48%.

Regarding `CCOC(=O)/C(C#N)=C/N=c1ccc(C)cn1C`, the “hERG current change (%, negative = inhibition) at 1uM” value was determined as 6.27%.

Take `O=C(NC1Cc2ccccc2C1)c1cc(COc2ccc(F)cc2Cl)on1`: the “hERG current change (%, negative = inhibition) at 1uM” value was 15.7%.

In the case of `COc1ccc(CNc2ncc(-c3ccccc3)n2C)c(OC)c1OC.O=C(O)C(=O)O`, the “hERG current change (%, negative = inhibition) at 1uM” value is -1.37%.

Take `Cc1cccc(N2C(=O)N(c3ccccc3C)C3CS(=O)(=O)CC32)c1` (stereo not shown): the “hERG current change (%, negative = inhibition) at 1uM” value came out at 16.2%.

As for `COc1ccc(-n2ccn(CC(=O)Nc3ccc(OC)cc3OC)c(=O)c2=O)cc1`, the “hERG current change (%, negative = inhibition) at 1uM” value is listed as 18%.

As to `Cc1c(CNC(=O)c2cnn3c2NC(c2ccc(Br)cc2)CC3C(F)(F)F)cnn1C` (stereo not shown), the “hERG current change (%, negative = inhibition) at 1uM” value came out at 3.82%.

For `COc1ccccc1NC(=S)N(Cc1ccc(Cl)cc1)CC1CCC(C(=O)O)CC1` (stereo not shown), the “hERG current change (%, negative = inhibition) at 1uM” value came out at 8.65%.

On to `Nn1c(SCc2ccc(F)cc2)nnc1-c1ccccn1`, for which the “hERG current change (%, negative = inhibition) at 1uM” value amounted to 11%.
